# In the supplement of paper PMC3334620:
# Over roughly 33,000 sequences, “E-score (-0.5 to 0.5)” has its median near -0.017; the highest 2% begin near 0.3. The list shows a part of the results.
# Molecular target: T1, Sut1 (UniProt P53032)
# T1 sequence: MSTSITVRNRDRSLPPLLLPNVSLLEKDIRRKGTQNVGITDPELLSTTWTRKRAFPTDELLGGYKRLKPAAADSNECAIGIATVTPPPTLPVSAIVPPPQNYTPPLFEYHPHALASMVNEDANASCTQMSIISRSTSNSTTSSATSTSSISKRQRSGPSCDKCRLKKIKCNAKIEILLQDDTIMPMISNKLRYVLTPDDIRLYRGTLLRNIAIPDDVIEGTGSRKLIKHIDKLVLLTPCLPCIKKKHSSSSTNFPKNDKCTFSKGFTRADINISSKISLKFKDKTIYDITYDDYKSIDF
# Test: PBM E-score (8-mer binding enrichment) (E-score (-0.5 to 0.5)); higher = stronger / more preferred TF binding; most listed sequences are background and not binding sites
# Conditions: protein concentration: 200 nM; construct: GST-full length
# Procedure, shortened: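 Bound GST-tagged yeast transcription factors, applied at about 100-200 nM to double-stranded universal all-10-mer Agilent arrays, were detected with fluorescent anti-GST. Scans were normalised with masliner. A modified Wilcoxon-Mann-Whitney statistic, the E-score, was assigned to each ungapped eight-base word pooled with its reverse complement by the Universal PBM Analysis Suite.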
row,Sequence,PBM E-score
1,ATCACTTG,-0.0418
2,GCGGGGGA,-0.222
3,GGTCGCAA,-0.00335
4,CCATCACC,-0.153
5,ACACTTCC,-0.0188
6,ACCGTGTC,-0.0975
7,CCAAGGCA,-0.0581
8,GACCCAAC,-0.0309
9,CTCCGGCA,0.423
10,GGGTCGAC,-0.0252
11,AATGTCGC,-0.177
12,CTCCTTTC,0.0215
13,CAGCGTAC,-0.109
14,AAGCTTTA,0.0497
15,ACTGTAGA,0.0876
16,CAGGTCGC,-0.341
17,CGGGGTAC,0.232
18,ATTTCTCA,0.179
19,TCAAATAA,0.187
20,AGGGTATA,0.0805
21,ATGGGTTC,-0.3
22,GACAGATC,0.0841

row,Sequence,PBM E-score
1,ACAAAACC,0.262
2,CATTTATC,0.158
3,AACTCCCT,-0.0108
4,GAGGGTAA,-0.107
5,ACCTCGGG,-0.174
6,GTTTTATA,0.221
7,ACGATTCT,0.168
8,ACTCAATG,0.104
9,GACGACCC,-0.229
10,CTGCTCTC,-0.104
11,GCATCTAC,-0.0256
12,CGCCGTAC,-0.0681
13,CAGCTTTC,-0.183
14,GCGGGGCA,-0.264
15,AACAGAAG,0.23
16,CAACGCCG,-0.123
17,CCACAAGC,-0.29
18,GACTCAGC,-0.0752
19,ACTCAGTA,0.088
20,AAGGCACC,-0.0888
21,CTACTCAA,0.226
22,CCGTGTAA,0.0974

row,Sequence,PBM E-score
1,ACGTGTCA,-0.113
2,CTACGCGC,-0.12
3,GCGATTGA,-0.0384
4,TAAGGCCA,0.0143
5,GCGGTGAC,-0.156
6,TCTGCGAA,-0.131
7,ACAGTTCT,0.123
8,CGAGCAAG,-0.157
9,ACACGTTG,-0.218
10,ACATCCCC,-0.126
11,AGAAACGA,0.12
12,ATGCCCCG,-0.222
13,CCCCCAAA,-0.252
14,CCTCTGAG,-0.0249
15,TACCGCAA,0.0263
16,ACGGTGAG,-0.143
17,CCATGGTA,-0.0897
18,CATCCTGA,0.00271
19,GAGATCGC,-0.0109
20,AGAGGGCG,-0.144
21,GACCTGAC,-0.207
22,ACAGTGAA,0.0332

row,Sequence,PBM E-score
1,CCCAGTAG,-0.131
2,GGCATAAA,0.123
3,AAAGACAG,0.205
4,GTAGGAGA,-0.0911
5,GAGGCCCA,-0.267
6,AGCCCCTA,-0.263
7,TGAACTAA,0.0997
8,AATGTACC,-0.0198
9,CCTACTCA,0.021
10,CGTTTCCC,0.093
11,AAGTTATC,0.155
12,CTCGAGAG,-0.12
13,GGATAACC,0.0177
14,CGCACAGA,-0.279
15,CGCGACAG,-0.283
16,CTCCGTAA,0.328
17,CCCATCTC,-0.18
18,AAGCGGAG,0.169
19,CGATTTCA,0.0969
20,CAGGACTA,-0.0566
21,CAACTATG,0.0519
22,CCCTTGAC,-0.13

row,Sequence,PBM E-score
1,CTCGTTTA,-0.00379
2,CGTTTCCA,0.0743
3,AAGATCTT,0.158
4,CTCTGCAG,-0.203
5,CTTTTTAA,0.00676
6,CGGCGTCA,-0.0663
7,ACAAGCGG,0.133
8,ATCATGAC,0.0515
9,ATGAGAAC,0.0799
10,ACCGTAAT,0.0377
11,GATGTCAC,-0.0111
12,AATAGACC,0.0391
13,CGGAACTC,0.247
14,CCAGCCGA,-0.242
15,ACTATCAA,0.233
16,CACCGTAC,0.0478
17,AAATCCTG,0.0973
18,TCTAATCA,0.145
19,CATGCTTA,0.0253
20,AAGCGTCT,-0.272
21,CTACGTAG,0.0263
22,GGATTTTA,0.16
